# Among all 310,000 compounds or so, about 14,000 (4.5%) showed an effect of 50% or more. Effects have a minus sign here. The list shows a part of the results.
# Target: human ether-à-go-go-related gene (hERG) potassium channel (human, UniProt Q12809)
# Experiment: primary screen, population patch clamp on CHO cells stably expressing hERG
# 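Note: peak tail current of the secondary pulse compared with the same well before compound.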
# human ether-à-go-go-related gene (hERG) potassium channel, sequence (Q12809 whole entry, looked up): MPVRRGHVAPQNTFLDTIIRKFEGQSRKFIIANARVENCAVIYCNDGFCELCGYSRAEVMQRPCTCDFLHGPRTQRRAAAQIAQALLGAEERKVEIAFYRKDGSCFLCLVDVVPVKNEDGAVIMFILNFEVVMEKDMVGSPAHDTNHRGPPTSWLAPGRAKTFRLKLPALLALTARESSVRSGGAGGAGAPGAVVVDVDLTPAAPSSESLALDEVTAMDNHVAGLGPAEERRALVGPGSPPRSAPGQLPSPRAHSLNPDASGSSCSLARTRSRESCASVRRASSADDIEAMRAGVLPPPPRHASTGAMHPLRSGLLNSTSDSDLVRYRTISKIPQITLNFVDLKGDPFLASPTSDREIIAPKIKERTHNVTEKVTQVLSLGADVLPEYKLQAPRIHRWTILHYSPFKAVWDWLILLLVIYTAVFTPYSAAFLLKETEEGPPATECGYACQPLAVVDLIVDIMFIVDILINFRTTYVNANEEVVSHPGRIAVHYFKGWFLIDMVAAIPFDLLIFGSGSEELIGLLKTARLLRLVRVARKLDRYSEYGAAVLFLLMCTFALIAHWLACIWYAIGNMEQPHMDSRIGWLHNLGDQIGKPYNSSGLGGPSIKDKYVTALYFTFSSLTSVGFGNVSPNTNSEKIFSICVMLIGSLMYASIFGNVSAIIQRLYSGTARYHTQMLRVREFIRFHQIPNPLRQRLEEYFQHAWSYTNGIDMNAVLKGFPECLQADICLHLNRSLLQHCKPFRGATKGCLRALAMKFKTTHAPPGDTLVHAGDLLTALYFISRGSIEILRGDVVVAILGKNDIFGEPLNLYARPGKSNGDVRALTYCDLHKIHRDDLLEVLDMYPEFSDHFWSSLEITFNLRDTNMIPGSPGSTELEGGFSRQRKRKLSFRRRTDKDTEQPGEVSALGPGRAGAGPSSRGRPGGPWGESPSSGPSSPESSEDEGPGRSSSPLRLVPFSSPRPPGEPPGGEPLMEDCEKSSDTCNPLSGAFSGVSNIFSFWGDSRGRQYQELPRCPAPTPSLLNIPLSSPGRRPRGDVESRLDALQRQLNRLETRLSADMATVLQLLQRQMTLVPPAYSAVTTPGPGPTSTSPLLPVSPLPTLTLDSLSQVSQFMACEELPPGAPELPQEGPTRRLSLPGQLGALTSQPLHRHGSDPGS
row,Structure (SMILES),"hERG current change (%, negative = inhibition) at 10uM"
1,COc1cccc(CN(C)CC(=O)Nc2cccc3ccccc23)c1.O=C(O)C(=O)O,23%
2,C[C@H](O)Cc1cn(-c2cc3cc(C#Cc4ccsc4)ccc3oc2=O)nn1,12.7%
3,Cc1ccc(OCC(=O)O/N=C(\N)Cc2cccs2)cc1C,7.6%
4,CC1CN(CCCCOc2cccc(Oc3ccccc3)c2)CC(C)O1.O=C(O)C(=O)O (centres unmarked),-35.9%
5,O=C(N/N=C/c1ccccn1)c1cc(Br)ccc1O,-54.9%
6,COc1cc(C2NC(=O)NC(c3ccccc3)=C2C(C)=O)cc(Cl)c1OCC(=O)O (centres unmarked),15.7%
7,CCOc1ccc(C(=O)Nc2cccc([N+](=O)[O-])c2)cc1Br,6.56%
8,N#CC1(NC(=O)COC(=O)CCCN=C2NS(=O)(=O)c3ccccc32)CCCCC1,15%
9,CCOC(=O)C1=C(COc2ccc(C)cc2)NC(=O)NC1c1cc(C)ccc1C (centres unmarked),13.9%
10,O=C(/C=C/c1cccc([N+](=O)[O-])c1)c1ccco1,-7.85%
11,CSc1nc(C2CC2)cc(-c2cccs2)c1C#N,17%
12,Cc1nc(NCCCn2ccnc2)c2oc3ccccc3c2n1.Cl,-69.8%
13,CC(C)N(C)CCOC(=O)c1ccccc1Br.Cl,14.5%
14,COc1ccc(C2CCCN2C(=S)Nc2cccc(C)c2C)cc1OC (centres unmarked),19.7%
15,Cc1cc(C)cc(C(=O)Nc2nc3ccccc3[nH]2)c1,14.4%
16,CC1CCN(c2ccc(C(=O)OCC(=O)NCCN3C(=O)CSC3=O)cc2[N+](=O)[O-])CC1,-30.5%
17,Cc1cc(C)cc(C(=O)NCC(=O)OCC(=O)c2cc(C)n(CC(F)(F)F)c2C)c1,1.83%
18,CCOc1ccc(C2C(C(=O)c3ccc(C)o3)=C(O)C(=O)N2c2cc(C)on2)cc1OC (centres unmarked),17.7%
19,CCCCNC(=O)N1CCN(Cc2ccc(F)cc2)CC1,-11.3%
20,O=[N+]([O-])c1cc2oc3c(c2c(C=NCc2ccccc2)c1O)CCCC3,9.56%
21,Cc1ccc(N2NC(=O)/C(=C\c3cc4c(cc3[N+](=O)[O-])OCO4)C2=O)cc1C,0.549%
22,CCC(c1nnc(SCC(=O)N2CC(=O)Nc3ccccc32)n1Cc1ccccc1)N(C)C (centres unmarked),-4.75%

row,Structure (SMILES),"hERG current change (%, negative = inhibition) at 10uM"
1,CC(C)(C)n1nc(Cc2cccc3ccccc23)c2c(N)ncnc21,-2.12%
2,Cc1cc(C)c2oc(=O)cc(CN3CCC(C)CC3)c2c1,-0.888%
3,O=C(NCCc1c[nH]c2ccccc12)C(=O)NCC1OCCCN1S(=O)(=O)c1ccccc1 (centres unmarked),-11.8%
4,COc1ccc(CC(=O)Nc2nc(-c3ccc(OC)c(OC)c3)cs2)cc1OC,-15.8%
5,CC1CN(S(=O)(=O)c2cccs2)CC(C)O1 (centres unmarked),-3.7%
6,COc1ccc(S(=O)(=O)Nc2ccc(Nc3ccccc3)cc2)cc1,5.15%
7,O=C(NC1CCCC1)c1ccc(Br)s1,-8.67%
8,CCOC(=O)CSc1nc2cc(OC)ccc2cc1C#N,10.1%
9,O=C(O)c1ccc2c(c1)C(=O)N(CCc1ccccc1)C2=O,20.4%
10,CN(C)c1cc[n+](CC(=O)Nc2ccc(OC(F)F)cc2)cc1.[Cl-],16.4%
11,Cc1cc(NC(=O)C(C)SCC(=O)N(C)CC(=O)Nc2ccccc2Br)no1 (centres unmarked),1.83%
12,CN(Cc1cnccn1)Cc1c(C(=O)N2CCc3ccccc3C2)nc2ccc(Cl)cn12,-23.4%
13,CC(=O)Nc1ccc(NC(=O)C(Cc2ccccc2)NC(=O)C2CCCCC2)cc1 (centres unmarked),3.54%
14,CSc1nc2sc3c(c2c(=O)n1C)CCCC3,-13.5%
15,CC1(C)Cc2c(sc(NC(=O)C3CC(Cl)=CCC3C(=O)O)c2C#N)CO1 (centres unmarked),8.57%
16,COc1ccc(NC(=O)C2CCC(CNS(=O)(=O)c3cccs3)CC2)cc1 (centres unmarked),17.8%
17,O=C(NCCCOc1cccc(CN2CCCCC2)c1)c1ccc(Cl)c(Cl)c1.O=C(O)C(=O)O,-60.8%
18,CCOC(=O)/C(=N\Nc1ccc(OC)cc1)c1csc(Nc2ccccc2)n1,8.24%
19,Cc1ccccc1N1CCN(Cc2ccc([N+](=O)[O-])o2)CC1,6.02%
20,CCC(NC(=O)c1ccccc1NC(=O)c1ccco1)C(=O)O (centres unmarked),14%
21,Cc1csc(CNc2ncnc3ccc(-c4ccoc4)cc23)c1,7.55%
22,CC(C)(C)n1cnc2cc(NC(=O)c3ccc(Cl)cc3)ccc21,-59.1%
